The record followed here is the RNAGym collection of RNA variant scans (doi:10.1093/nar/gkz1192).

B1: CPEB3 Ribozyme (parent)
chain: UAACAGGGGGCCACAGCAGAAGCGUUCACGUCGCAGCCCCUGUCAGAUUCUGGUGAAUCUGCGAAUUCUGCUGUAUAUCUC

Read counts are not given, so values of variants with three or more changes are uncertain.

This data set covers variants of B1. The data set is described as follows: self-cleavage, relative activity (ratio to wild type); higher = more cleavage; in vitro, sequencing. A digest of the protocol:
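For each CPEB3 ribozyme variant, relative activity is its cleaved/total read fraction divided by the unmutated ribozyme's. Barcoded error-prone PCR libraries were transcribed by T7 RNA polymerase (5 hours, 37°C) and held in DNase I for 15 min before an EDTA stop, with cleavage occurring throughout. Template-switching reverse transcription and Illumina sequencing were used to read the RNAs. A 5-read minimum applied, and results are the mean of three batches.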
Take U60G A65G U76C A77G: the self-cleavage was determined as 0.15.
To C62U C68A U80C belongs 0.21; to U58G C71U A75G, 0.19; to U51A U69C A77G, 0.78.
To G52A G55C U69A belongs 0.67; to U51A A64G U67C, 0.49; to A64U A75G U78C, 0.21.
Consider U54C U72A A75G, for which the self-cleavage is 1.29.
Next, U48C U51C A57G: 1; U49C U78C U80C: 0.38.
Next, U51C U54C C71U: 0.56.
Regarding U54A U67C U72C, the self-cleavage stood at 0.39.
For A56U U69C U72C U76C, the self-cleavage is 0.31.
Regarding U60G C62G U76A, the self-cleavage is 0.2.
Next, U51C A56U A57G: 0.4; G52U G63U A64G C68U: 0.49; G53U A57G A64G: 1.11.
A47U U60C U76A: the self-cleavage is 0.11.
G63A A64G U66C: the self-cleavage came out at 0.47.
On to U49C G63A C71U, for which the self-cleavage was 0.24.
Turning to U49A A56U U76A U78A, the self-cleavage was 1.32.
For the variant U48C U54C U66C U69C, the self-cleavage is 0.17.
Consider G55A U67C U69A, for which the self-cleavage was 0.17.
Regarding U49A A64U U67C U80C, the self-cleavage was 0.2.
For U58A U67C U69A A75G, the self-cleavage was determined as 0.49.
For U60A U66C G73A U76A A77G, the self-cleavage was 0.41.
Regarding U49C U58C U78C, the self-cleavage came to 0.17.
In the case of C59G A64U U72C C79A, the self-cleavage came out at 0.11.
Regarding A56G C59A U66C U76A, the self-cleavage worked out at 0.09.
U48A U58C U60C: the self-cleavage was found to be 0.23.
Regarding U49C U69C U80C, the self-cleavage was determined as 0.34.
Next, A56G U74C U80C: 1.2; A57G U60C U76A: 0.22.
For U48C A65G U66C A77C, the self-cleavage is 0.17.
For U58G C71U U78C, the self-cleavage is 0.32.
With U54C A56U C62U U69C, the self-cleavage was 0.22.
For the variant U54A C59A U76A U80C, the self-cleavage was 0.28.
With U48C A56G A57G U69A, the self-cleavage came to 0.41.
To A65G U66C U72A A75G A77G belongs 0.22.
For the variant U58A A64U U69A, the self-cleavage came to 0.17.
To U51C A56G U72G belongs 0.47; to U58C G63C U72A U80A, 0.54; to U51A U54C U67C, 0.3.
Take A56G U58G A64G: the self-cleavage stood at 0.18.
Turning to A64G U76C U78C, the self-cleavage amounted to 0.93.
As for G53A U69C U74A U78C, the self-cleavage worked out at 0.43.
Consider U51C U67A U72C, for which the self-cleavage amounted to 0.51.
As for G55U U69A U76C, the self-cleavage is 0.77.
In the case of G53A U54C U66C U74C, the self-cleavage stood at 0.39.
On to A56G U76A U80C, for which the self-cleavage turned out to be 0.74.
Regarding U51A A56G U66C, the self-cleavage came to 0.14.
To G52A U74C A75U U80C belongs 1.19; to A57G U76C A77U, 0.96.
Next, U66C U69C U80C: 0.25.
Take U66C U78C U80C: the self-cleavage was 0.21.
To C62U A75U U78C belongs 0.17.
Next, A65G U67A U69A: 0.31; U54C U67C U80C: 0.17.
Take U58C U60A U72G: the self-cleavage is 0.3.
Turning to A56G U60C U80A, the self-cleavage was 0.21.
Take A57G U58C C68G: the self-cleavage amounted to 0.18.
For the variant U67C G70C A77G, the self-cleavage was 0.17.
In the case of A56G U66A A77U, the self-cleavage stood at 0.53.
Next, A57U A64U U69G: 0.23; A56G U66C U72C: 0.24.
Next, A57G A65G U67C U78C: 0.4; U51C G55U A57G: 0.46; U51C U67G U74C: 0.41.
Take U60C U66C U74C: the self-cleavage turned out to be 0.26.
As for U48C U58C A65G U66C U67A, the self-cleavage came to 0.09.
Take A56U U67A U78C: the self-cleavage is 0.23.
A65U U69A U74C: the self-cleavage stood at 0.36.
Next, A57G C59A G61A: 0.12.
On to U48C U51C A65G, for which the self-cleavage is 0.2.
For U51C A65G U78C, the self-cleavage was 0.47.
For A57G A64G C71U, the self-cleavage worked out at 0.42.
Next, G53C U58G U72A: 0.17; U48C U58C C71G: 0.08; U60C C62G U66C: 0.29.
On to U51C U67C U69C, for which the self-cleavage came to 0.33.
As for U58C U60G U76A, the self-cleavage stood at 0.16.
For U60C U72C U78C U80C, the self-cleavage is 0.32.
With U48C U60C G73A, the self-cleavage came out at 0.27.
To G61A C62U U69C U72C belongs 0.24; to A57C U66C U69A, 0.18; to A65U U66C U69C, 0.09.
For the variant G52A A56U U60C, the self-cleavage was 0.31.
For the variant U54C A57G U69A, the self-cleavage worked out at 0.29.
Next, C62U U72C A77G: 0.29.
For the variant U67C U74C U80C, the self-cleavage is 0.41.
Regarding U49C A64U U66C U72C U78C, the self-cleavage was found to be 0.09.
Next, U69A C71U U72C: 0.48; U69A C71U U72A: 0.23; U48C U60C U66C U76A: 0.16.
To A56C A64G U78C belongs 0.39.
Consider U54G A56G U72C U80A, for which the self-cleavage came to 0.75.
In the case of U69G U72C A77U, the self-cleavage worked out at 0.44.
Regarding U48A U72A A77U, the self-cleavage came to 0.2.
In the case of U51G U54C U58C C62A, the self-cleavage amounted to 0.63.
On to A56G C62A A64U U67C, for which the self-cleavage was 0.36.
For A57G U66C U80G, the self-cleavage was determined as 0.31.
As to A64G A65C U67C, the self-cleavage stood at 0.26.
Next, U69C A77U U80A: 0.87.
Consider A57U U58C A75U, for which the self-cleavage stood at 0.39.
Consider U49A U58C U72C C79U, for which the self-cleavage came to 0.25.
As to U49C A57G U66G U74C, the self-cleavage amounted to 0.06.
Consider U54G U58C A64G C71G, for which the self-cleavage is 0.24.
As to A56G A57G U69A, the self-cleavage was found to be 0.15.
Take G63A U72C A75G: the self-cleavage is 1.19.
For the variant A57U A64G A75U, the self-cleavage is 0.48.
Consider U58C A65U U72A U80C, for which the self-cleavage worked out at 0.28.
Next, U69A A75G U80C: 0.22; U67A U72A U74G: 0.72; C62U U66C G73A: 0.51.
U54A U60A U80C: the self-cleavage came out at 0.97.
Consider U51C U58A U60C U80C, for which the self-cleavage was 0.13.
As to A57G U60A U66C A77G, the self-cleavage stood at 0.26.
For the variant A56G A77C U78A, the self-cleavage is 0.75.
For U51A U58A U72C, the self-cleavage came to 0.52.
For U49C U54C U60C U76A, the self-cleavage stood at 0.38.
Turning to G55A A57G A77G, the self-cleavage amounted to 0.48.
As to C59U U72C U80C, the self-cleavage came out at 1.06.
For the variant U49C U54C A64U U78C, the self-cleavage came to 0.13.
As to G55A U72A U78A, the self-cleavage was 0.36.
U54C A56G C81U: the self-cleavage turned out to be 0.8.
For the variant U48C A57G A64G A65U, the self-cleavage was 0.19.
As for C50U U66C G70A, the self-cleavage is 0.3.
Regarding U49A U60C U72C, the self-cleavage was 0.22.
Next, U49G U66C U76A: 0.17; U54C U60A U66A U72A: 0.26; A57G U69G A75U: 0.55.
Take G63A A64G U72G: the self-cleavage amounted to 0.72.
On to A56G U72A U80G, for which the self-cleavage was determined as 1.17.
Regarding A65C G73C U80A, the self-cleavage worked out at 0.15.
A65U U72A A77G U80A: the self-cleavage is 0.34.
As for U51A C71U A77G, the self-cleavage was determined as 0.7.
With U66A A75G U76C, the self-cleavage was 0.25.
For U49A A65U U66C, the self-cleavage is 0.08.
A56U U67C U69C A77U: the self-cleavage amounted to 0.51.
For U54G A56U U69C, the self-cleavage was 0.19.
To C50A U51C G52A U67C belongs 0.28; to U51C U60A U76C, 0.32; to U58A U69C U80A, 0.24.
Regarding A57G U58C U66G, the self-cleavage is 0.23.
On to C62G U66A U80C, for which the self-cleavage came to 0.48.
For the variant U51C A57G U60A U76C, the self-cleavage amounted to 0.32.
U51C A57C U78C: the self-cleavage was determined as 0.32.
Turning to U48C U60G U72A, the self-cleavage was 0.15.
As to U49A U51A U80C, the self-cleavage worked out at 0.6.
In the case of U54C U58C U72C, the self-cleavage stood at 0.29.
Consider U58A U74A A77U, for which the self-cleavage was 0.59.
In the case of U58C U76C U78C, the self-cleavage amounted to 0.57.
U48C U49C U66C: the self-cleavage was determined as 0.19.
For A57G A65G U80C, the self-cleavage was found to be 0.04.
Take G52U G63U U80A: the self-cleavage was 1.21.
Consider U49C A56G U60A U69A U72A, for which the self-cleavage amounted to 0.15.
To U54C A56G U60A A75G C81U belongs 0.21; to A56G A65G U67C U80C, 0.12; to U51A A56U U66C, 0.2.
Next, U54C A56U U60C U76A: 0.13; A56G A65U U72A: 0.13; U49A A65G U67C: 0.38.
For U54C A57G U60C, the self-cleavage was determined as 0.34.
As for U51C U54C U69G, the self-cleavage was 0.84.
As to U60C C68A U69C U76A, the self-cleavage stood at 0.11.
U51A A57G U67G A75G: the self-cleavage stood at 0.09.
With U48C U51G U76C, the self-cleavage was determined as 0.42.
